Data: US20250115571A1, “OXOPIPERAZINE DERIVATIVES” (Inthera Bioscience AG, priority 2017, published 2025)
The name of at least one read-out is uncertain. Marks after values point to notes of the source that are not given here.

Tested on: CaSki cells
Test: Colony Formation Assay (CFA), 14 days
Format: cell-based, human
Settings: colony formation assay, class by % inhibition at 0.7, 6 or 50 μM

Question: Which “Activity (inhibition of colony formation)” value does the source give for CC(C)C[C@@H]1NCCN([C@@H](CC(C)C)C(=O)N2CCC3(CCN(C)C3)CC2)C1=O [Compound 264, (S)-1-[(S)-3-Methyl-1-{(2-methyl-2,8-diaza-8-spiro[4.5]decyl)car-bonyl}butyl]-3-isobutyl-2-piperazinone] here?
Answer: +++ (more than 90% inhibition of colony formation at a concentration of 50 μM)

Question: For CCCc1nc(CC2CCN(C(=O)[C@H](CC(C)C)N3CCN[C@@H](CC(C)C)C3=O)CC2)n(C)c1CCC [Compound 30, (S)-1-[(S)-3-Methyl-1-({4-[(1-methyl-4,5-dipropyl-1H-imidazol-2-yl)methyl]-1-piperidyl}car-bonyl)butyl]-3-isobutyl-2-piperazinone], which “Activity (inhibition of colony formation)” value is on record?
Answer: +++ (more than 90% inhibition of colony formation at a concentration of 50 μM)

Question: How did the “Activity (inhibition of colony formation)” value turn out when CC(C)C[C@@H]1NCCN([C@@H](CC(C)C)C(=O)N2CCC(c3c[nH]cn3)CC2)C1=O [Compound 32, (S)-1-[(S)-1-{[4-(1H-Imidazol-4-yl)-1-piperidyl]carbonyl}-3-methylbutyl]-3-isobutyl-2-piperazinone] was run?
Answer: ++ (more than 50% inhibition of colony formation at a concentration of 50 μM)

Question: With CC(C)C[C@@H]1NCCN([C@@H](C)C(=O)N2CCC(CC(N)=O)CC2)C1=O [Compound 119, (1-{(S)-2-[(S)-3-Isobutyl-2-oxo-1-piperazinyl]pro-pionyl}-4-piperidyl)acetamide] as the compound, how does the “Activity (inhibition of colony formation)” value read?
Answer: +* (greater than 0% but less than or equal to 50% inhibition of colony formation at a concentration of 50 μM)

Question: For CC(C)C[C@@H]1NCCN([C@@H](CC(C)C)C(=O)N2CCC(CCN(C)C)CC2)C1=O [Compound 7, (S)-1-[(S)-1-({4-[2-(Dimethylamino)eth-yl]-1-piperidyl}car-bonyl)-3-methylbutyl]-3-isobutyl-2-piperazinone], which “Activity (inhibition of colony formation)” value is on record?
Answer: ++++ (more than 90% inhibition of colony formation at a concentration of 6 μM)

Same assay, conditions: inhibition of colony formation, 14 days, classes at 6, 50 or 0.7 μM

Question: For CC(=O)N1CCN([C@@H](CC(C)C)C(=O)N2CCC(COc3ccc(CC(=O)O)cc3)CC2)C(=O)[C@@H]1CC(C)C [Compound 216, {p-[(1-{(S)-2-[(S)-4-Acetyl-3-isobutyl-2-oxo-1-piperazinyl]-4-methyl-valeryl}-4-piperidyl)methoxy]phenyl} acetic acid], which Activity is on record?
Answer: +* (greater than 0% but less than or equal to 50% inhibition of colony formation at a concentration of 50 μM)

Question: For CC(=O)N1CCN([C@@H](CC(C)C)C(=O)N2CCC(COc3cccc(CC(=O)O)c3)CC2)C(=O)[C@@H]1CC(C)C [Compound 303, {m-[(1-{(S)-2-[(S)-4-Acetyl-3-isobutyl-2-oxo-1-piperazinyl]-4-methylvaleryl}-4-piperidyl)meth-oxy]phenyl}acetic acid], which Activity is on record?
Answer: +* (greater than 0% but less than or equal to 50% inhibition of colony formation at a concentration of 50 μM)

Question: How did the Activity turn out when CC(C)C[C@@H]1NCCN([C@@H](CC(C)C)C(=O)N2CCC(COc3ccc(CN(C)C)cc3)CC2)C1=O [Compound 214, (S)-1-[(S)-1-{ [4-({p-[(Dimethyl-amino)meth-yl]phenoxy}methyl)-1-piperidyl]carbonyl}-3-methylbutyl]-3-isobutyl-2-piperazinone] was run?
Answer: +++ (more than 90% inhibition of colony formation at a concentration of 50 μM)

Question: How did the Activity turn out when CCC(C)N(C)C(=O)CC1CCN(C(=O)[C@H](CC(C)C)N2CCN[C@@H](CC(C)C)C2=O)CC1 (stereo partly drawn) [Compound 183, (S)-1-[(S)-1-[(4-{2-[N-Methyl(sec-butyl)amino]-2-oxoethyl}-1-piperidyl)carbonyl]-3-methylbutyl]-3-isobutyl-2-piperazinone] was run?
Answer: +* (greater than 0% but less than or equal to 50% inhibition of colony formation at a concentration of 50 μM)

Question: Which Activity does the source give for CC(C)C[C@@H]1NCCN([C@@H](CC(C)C)C(=O)N2CCC(CC(=O)OCC3CC3)CC2)C1=O [Compound 204, Cydopropylmethyl (1-{(S)-2-[(S)-3-isobutyl-2-oxo-1-piperazinyl]-4-methylvaleryl}-4-piperidyl)acetate] here?
Answer: ++ (more than 50% inhibition of colony formation at a concentration of 50 μM)
